Test results reported in PMC7819943, “Rice protein-binding microarrays: a tool to detect cis-acting elements near promoter regions in rice”.
The list shows a part of the results.

target: T1, OsWOX13 (Oryza sativa, UniProt Q5QMM3 1-267); test: protein-binding microarray (RPBM); PBS, 2% BSA, 51.3 ng/ul salmon testes DNA, 50 uM zinc acetate, 200 nM TF, 25 C, 1 h; high values mean tight binding; conditions: protein: recombinant; tags: N-terminal polyhistidine and DsRed monomer fusion (pET32a); label: CyDye5-dUTP incorporated in the synthesized complementary strand; 3' TTTTT single-stranded linker to array surface; dsDNA, one strand shown
T1 sequence: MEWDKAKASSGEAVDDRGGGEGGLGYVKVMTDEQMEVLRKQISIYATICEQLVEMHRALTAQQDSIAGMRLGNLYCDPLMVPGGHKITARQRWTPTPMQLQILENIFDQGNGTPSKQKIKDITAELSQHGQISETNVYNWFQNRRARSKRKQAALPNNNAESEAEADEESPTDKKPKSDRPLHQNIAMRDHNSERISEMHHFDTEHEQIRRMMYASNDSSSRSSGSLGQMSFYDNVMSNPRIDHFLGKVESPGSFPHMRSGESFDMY
Outline: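 Ni–NTA purification followed expression in E. coli BL21-CodonPlus of transcription factors fused N-terminally to a polyhistidine tag and DsRed. At 200 nM in PBS with 2% BSA, salmon testes DNA and 50 µM zinc acetate, the protein was incubated for 1 h at 25 °C with a custom Agilent array that had been primer-extended with Cy5-dUTP and blocked with 2% BSA. After washing, the array was read on an Axon 4000B scanner. The binding signal is per-feature fluorescence intensity in arbitrary units.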

Row | Sequence | binding signal
1 | ATGAATTTATTAAGCCTAATTAATCCGTCATTAGCATATGCGGAGTCACCTAGTGCAG | 7630 fluorescence intensity (a.u.)
2 | GTGCAATCAGATCTGATTTAGATAAATAATTTAAGATAAACGGAGTCACCTAGTGCAG | 12900 fluorescence intensity (a.u.)
3 | TTTGATTAGTCGTACTATCTTTCTAACGTGTGAGAATCATCGGAGTCACCTAGTGCAG | 23700 fluorescence intensity (a.u.)
4 | ATCACCGAAATTTCTAAATCAATGGGAATTATGGCCGGCACGGAGTCACCTAGTGCAG | 5930 fluorescence intensity (a.u.)
5 | TTTGAGATTTGTGTAAATTGAAAATAGAAAATCATAGCGCCGGAGTCACCTAGTGCAG | 18300 fluorescence intensity (a.u.)
6 | CAGCTAGATTACTATATTTTGATTTAGATTCGTAGTACGACGGAGTCACCTAGTGCAG | 11900 fluorescence intensity (a.u.)
7 | CCTTCTACAAGCTCATTTGATTGAAGAGGCTTGCATGTTGCGGAGTCACCTAGTGCAG | 5160 fluorescence intensity (a.u.)
8 | TTTAATTAGCAGGCAGGAATTAAGAGGCAGCTAACAGTAGCGGAGTCACCTAGTGCAG | 17100 fluorescence intensity (a.u.)
9 | ATCTTATTAATTAATTCTTTGTGTTTCATATTATTCTAATCGGAGTCACCTAGTGCAG | 17100 fluorescence intensity (a.u.)
10 | ATGATATAACTGAAAAGTTGTGTGTGTATGACAGGTTGATCGGAGTCACCTAGTGCAG | 6470 fluorescence intensity (a.u.)
11 | TTTACTTAACAAATGTTTGATTAGATCTTCAGTTTTATATCGGAGTCACCTAGTGCAG | 6130 fluorescence intensity (a.u.)
12 | AAAATATCCAGTATTGTGATTGAGAGATACTACGAATTAGCGGAGTCACCTAGTGCAG | 6110 fluorescence intensity (a.u.)
13 | CCGATAATTTAGAATAGTTTCTGTATCTGTTCATGGTAAACGGAGTCACCTAGTGCAG | 17800 fluorescence intensity (a.u.)
14 | CCTAATTGCTTAGAGGACAAAGTTAGCTAGGCAGCTAGCTCGGAGTCACCTAGTGCAG | 16000 fluorescence intensity (a.u.)
15 | GGCGATTACACGAACTAATCTATCATTATCTCTAGCCGTCCGGAGTCACCTAGTGCAG | 3880 fluorescence intensity (a.u.)
16 | AACTTCTAATTTTAGTGTAAACTAAACAATTTCTGTCGAACGGAGTCACCTAGTGCAG | 4330 fluorescence intensity (a.u.)
17 | TTGATGGATGGATGGATGGAGAGGGGCGTTGCCAAGTCCACGGAGTCACCTAGTGCAG | 9900 fluorescence intensity (a.u.)
18 | TTATTATTGATAATTGATAATTTGGTAAATTGTTGATTTTCGGAGTCACCTAGTGCAG | 30000 fluorescence intensity (a.u.)
19 | CTAAACTGATCTGAAATGTTCGACAGGATATATACAGGGGCGGAGTCACCTAGTGCAG | 11800 fluorescence intensity (a.u.)
20 | AATCAATCACGCATGAGCACATGGCATCAACTTCACATAACGGAGTCACCTAGTGCAG | 18700 fluorescence intensity (a.u.)
21 | GAGTACTTAATTAATCACGTGCTAATAGACCACTCTGTTTCGGAGTCACCTAGTGCAG | 28100 fluorescence intensity (a.u.)
22 | ACATGTGGATTTGACAAATTTAGGATCTGTAAATATTGAACGGAGTCACCTAGTGCAG | 3360 fluorescence intensity (a.u.)
23 | AAAATATAATTGGGTATAAACCCGTCGATACGTACGTACCCGGAGTCACCTAGTGCAG | 5280 fluorescence intensity (a.u.)
24 | CATCAAAATTTTCTTAGACATAACTTTCCACTTTTCTGTCCGGAGTCACCTAGTGCAG | 3310 fluorescence intensity (a.u.)
25 | TCGTTAATGAGCCTCAAATTGTTGATTTAACACAGTGCTTCGGAGTCACCTAGTGCAG | 22600 fluorescence intensity (a.u.)
26 | GTACACAAAATTTATATTTTAGATTGCTTATTTTGGAAAACGGAGTCACCTAGTGCAG | 8220 fluorescence intensity (a.u.)
27 | GCCTTAATTAATAATGTTTAACCACTATAGATTTATTTTCCGGAGTCACCTAGTGCAG | 30800 fluorescence intensity (a.u.)

Row | Sequence | binding signal
28 | GGCCGGTTGATTGTGTGGTTGGTGAGGGCGCGAGCTCTGCCGGAGTCACCTAGTGCAG | 10600 fluorescence intensity (a.u.)
29 | CAAATTTTGAAAAGATTTATTTTGACAATAATCTGAGTATCGGAGTCACCTAGTGCAG | 3590 fluorescence intensity (a.u.)
30 | TGTGATTATGATACTGTGCACGATGAGGCACCCCTGGTGGCGGAGTCACCTAGTGCAG | 41700 fluorescence intensity (a.u.)
31 | GAATGAGAAAATTTGAGTCTAATTTAGCAGGCAGAACTAACGGAGTCACCTAGTGCAG | 3490 fluorescence intensity (a.u.)
32 | AGATAATTAAGTATTTTACGTAAAATAAGATAGTATTAATCGGAGTCACCTAGTGCAG | 5240 fluorescence intensity (a.u.)
33 | ATAATGAATAGATTACCACATGCTATGGCTATGCATGTACCGGAGTCACCTAGTGCAG | 16200 fluorescence intensity (a.u.)
34 | ATTATTTGTGATTAAGAGGTAGATCATAATACGGGTGGTTCGGAGTCACCTAGTGCAG | 6260 fluorescence intensity (a.u.)
35 | TAGGCTTAATTACTATATACTTGCATGTTGAGTTTTGTGTCGGAGTCACCTAGTGCAG | 15700 fluorescence intensity (a.u.)
36 | CACAGATTGCGTGTAAATTGTGAGACGAATCTTTTAAGCCCGGAGTCACCTAGTGCAG | 29700 fluorescence intensity (a.u.)
37 | ATGATGAAAATTCATGACAACTCAAAACCAGTATTCGTTGCGGAGTCACCTAGTGCAG | 3550 fluorescence intensity (a.u.)
38 | ACCGTACGATCAAACCAATCAACTCACCGCGGTGAGAAGGCGGAGTCACCTAGTGCAG | 4650 fluorescence intensity (a.u.)
39 | CTACAAATTAACTTTGAGTACTTAATGATGTAATTTGATCCGGAGTCACCTAGTGCAG | 34200 fluorescence intensity (a.u.)
40 | ATTGATTGGTGTCTTGCCGAGAGAGGCTTCAATTCTTAGACGGAGTCACCTAGTGCAG | 19400 fluorescence intensity (a.u.)
41 | GTTGACGGATGAAAATCAAACTCGTTATCAAATTAAGGGACGGAGTCACCTAGTGCAG | 4090 fluorescence intensity (a.u.)
42 | GATATAATTCAAATTCAAATTTGAATCGGATATATAAACTCGGAGTCACCTAGTGCAG | 3380 fluorescence intensity (a.u.)
43 | TAAAATTGCATATGAAATTTTAGTGTATTTACAATGTAAGCGGAGTCACCTAGTGCAG | 9920 fluorescence intensity (a.u.)
44 | TTCGCACGGTGATGTACGAGATTGGATTTTACGACGTTTTCGGAGTCACCTAGTGCAG | 3560 fluorescence intensity (a.u.)
45 | CCGCTGATTACAGTCGGTCTTTCTGGTTTTAGCCCATGGACGGAGTCACCTAGTGCAG | 23500 fluorescence intensity (a.u.)
46 | AATTACAAAATCAATTTTAAATTTAAATTTTAGCTTATACCGGAGTCACCTAGTGCAG | 12100 fluorescence intensity (a.u.)
47 | CATAGACATATTTTAGTTAATGGTCGTATAGTCGATATACCGGAGTCACCTAGTGCAG | 4510 fluorescence intensity (a.u.)
48 | GCGATAAATGCGAGTTTAATTTCTAGTGGTGTGTAATTAACGGAGTCACCTAGTGCAG | 4450 fluorescence intensity (a.u.)
49 | TATATATATATATATATATATATATATATGTGTGTGTGTGCGGAGTCACCTAGTGCAG | 20300 fluorescence intensity (a.u.)
50 | GCATTCACCTTGCTTGACTGTAATTGAGTCATTGCTGTACCGGAGTCACCTAGTGCAG | 3780 fluorescence intensity (a.u.)
51 | CAGGCAAATTTAAGGTTAATTCAATTAAGTGATACACCAACGGAGTCACCTAGTGCAG | 16700 fluorescence intensity (a.u.)
52 | CGATGATTACGTCCTGTCCTTCAGGACAGATCGTTCGAAACGGAGTCACCTAGTGCAG | 16400 fluorescence intensity (a.u.)
53 | GTGAATTGGCTGCAAATCTAACCACAAAATACTTGTCAATCGGAGTCACCTAGTGCAG | 4200 fluorescence intensity (a.u.)
54 | AGTACTTGATAGAGATCTTAGATTGAAAATGCTCCCTGAACGGAGTCACCTAGTGCAG | 31800 fluorescence intensity (a.u.)
